Reference: publication PMC11995724, “Antibiotic target discovery by integrated phenotypic and activity-based profiling of electrophilic fragments” (Cell chemical biology, 2025)
The whole screen tested about 3,200 compounds, of which about 75 (2%) showed an effect of 50% or more. This is one part of the list.

Each molecule was assayed on T1, S. aureus MSSA476. Settings: relative growth, OD600, TSB; 25 µM; inhibitor.
T1 construct: MSSA476
Parameters: species or system S. aureus MSSA476 (TSB) or V. cholerae SAD30 (LB); 384-well bacterial growth screen at 25 uM, OD600 relative to DMSO control

First: Cc1cc(C(=O)CCl)c(C)[nH]1 [10-J08, 2-chloro-1-(2,5-dimethyl-1H-pyrrol-3-yl)ethan-1-one]
Second: Cn1c(N)c(C(=O)CCl)c(=O)[nH]c1=O [10-I16, 6-amino-5-(2-chloroacetyl)-1-methyl-1,2,3,4-tetrahydropyrimidine-2,4-dione]
The “% of control remaining” value of the first is lower: 109.688% for the first, 115.938% for the second.

Going from `O=C(CCl)NCCC1CCCC1(F)F` (centres unmarked) [7-P04, 2-chloro-N-[2-(2,2-difluorocyclopentyl)ethyl]acetamide] to `O=C(CCl)NC1CCC2(CCC1(F)F)OCCO2` (centres unmarked) [5-G09, 2-chloro-N-{9,9-difluoro-1,4-dioxaspiro[4.6]undecan-8-yl}acetamide], the “% of control remaining” value falls from 128.414% to 110.383%.

Compared with `C=CC(=O)N1CCC(C(=O)NCc2ncc(N(C)C)cn2)CC1` [3-L03, N-{[5-(dimethylamino)pyrimidin-2-yl]methyl}-1-(prop-2-enoyl)piperidine-4-carboxamide], `C=CC(=O)N1CCC(C(=O)Nc2n[nH]c3cc(C#N)c(C)cc23)CC1` [3-J18, N-(6-cyano-5-methyl-1H-indazol-3-yl)-1-(prop-2-enoyl)piperidine-4-carboxamide] is higher in “% of control remaining” value: 91.2495% for the first, 113.539% for the second.

First: N#CC(=Cc1csc2ccccc12)C(=O)NCc1ccco1 [9-D16, 3-(1-benzothiophen-3-yl)-2-cyano-N-[(furan-2-yl)methyl]prop-2-enamide]
Second: N#CC(=Cc1c(Cl)cccc1Cl)C(=O)NCc1ccco1 [9-K06, 2-cyano-3-(2,6-dichlorophenyl)-N-[(furan-2-yl)methyl]prop-2-enamide]
The “% of control remaining” value of the first is higher: 104.27% for the first, 96.4794% for the second.

Compared with `C=CC(=O)NC(c1ccc(F)cc1)c1ccccn1` (centres unmarked) [3-N14, N-[(4-fluorophenyl)(pyridin-2-yl)methyl]prop-2-enamide], `N#CC(=Cc1ccc(F)cc1)C(=O)Nc1cccc2ncccc12` [9-C21, 2-cyano-3-(4-fluorophenyl)-N-(quinolin-5-yl)prop-2-enamide] is lower in “% of control remaining” value: 82.8907% for the first, 75.5056% for the second.

Compared with `C#CCN(C(=O)c1ccc(NC(=O)C=C)cc1)C1CCCCC1` [3-D13, N-cyclohexyl-4-(prop-2-enamido)-N-(prop-2-yn-1-yl)benzamide], `O=C(CCl)N(Cc1ccc2c(c1)CCO2)C1CCCC1` [6-L11, 2-chloro-N-cyclopentyl-N-[(2,3-dihydro-1-benzofuran-5-yl)methyl]acetamide] is lower in “% of control remaining” value: 117.37% for the first, 91.5122% for the second.

First: CC(NC(=O)C(C#N)=Cc1cccc(Cl)c1Cl)c1ccccc1 (centres unmarked) [9-N04, 2-cyano-3-(2,3-dichlorophenyl)-N-(1-phenylethyl)prop-2-enamide]
Second: COc1ccc(C=C(C#N)C(=O)Nc2ccc(Cl)cc2Cl)cc1 [8-K03, 2-cyano-N-(2,4-dichlorophenyl)-3-(4-methoxyphenyl)prop-2-enamide]
The “% of control remaining” value of the first is lower: 0.5993% for the first, 117.51% for the second.

Going from `CSc1ccc(C=C(C#N)C(=O)Nc2c(C)cc(C)cc2C)cc1` [8-G15, 2-cyano-3-[4-(methylsulfanyl)phenyl]-N-(2,4,6-trimethylphenyl)prop-2-enamide] to `CC(C)NC(=O)C(C#N)=Cc1ccc(OC(C)C)cc1` [8-G12, 2-cyano-N-(propan-2-yl)-3-[4-(propan-2-yloxy)phenyl]prop-2-enamide], the “% of control remaining” value rises from 97.9253% to 120.83%.

First: O=C1C=CC(=O)N1c1ccc(OC(F)(F)F)cc1 [10-J19, 1-[4-(trifluoromethoxy)phenyl]-2,5-dihydro-1H-pyrrole-2,5-dione]
Second: O=C1C=CC(=O)N1c1cccc(O)c1 [10-O07, 1-(3-hydroxyphenyl)-2,5-dihydro-1H-pyrrole-2,5-dione]
The “% of control remaining” value of the first is lower: 5.9375% for the first, 125.313% for the second.

Compared with `CC(=O)c1ccc(S(=O)(=O)N2CCN(C(=O)CCl)CC2)cc1` [5-P16, 1-[4-(4-acetylbenzenesulfonyl)piperazin-1-yl]-2-chloroethan-1-one], `CC(Cl)C(=O)N1CCN(Cc2ccc3ccccc3n2)CC1` (centres unmarked) [7-A15, 2-chloro-1-{4-[(quinolin-2-yl)methyl]piperazin-1-yl}propan-1-one] is higher in “% of control remaining” value: 107.104% for the first, 107.378% for the second.

Going from `CC(=O)NCCc1cc(C(=O)CCl)ccc1F` [10-O05, N-{2-[5-(2-chloroacetyl)-2-fluorophenyl]ethyl}acetamide] to `Cn1c(=O)oc2cc(C(=O)CCl)ccc21` [10-F07, 6-(2-chloroacetyl)-3-methyl-2,3-dihydro-1,3-benzoxazol-2-one], the “% of control remaining” value falls from 128.438% to 93.125%.

Going from `N#CC(C(=O)N1CCCCC1)=C1N=C(N)c2ccccc21` [9-A21, 2-(3-amino-1H-isoindol-1-ylidene)-3-oxo-3-(piperidin-1-yl)propanenitrile] to `O=C(CCl)Nc1cc(C2CCCC2)nn1-c1ccccc1` [4-J03, 2-chloro-N-(3-cyclopentyl-1-phenyl-1H-pyrazol-5-yl)acetamide], the “% of control remaining” value rises from 97.9775% to 103.668%.

Going from `N#CC(=Cc1sc2ccccc2c1Cl)C(=O)NC1CC1` [9-C18, 3-(3-chloro-1-benzothiophen-2-yl)-2-cyano-N-cyclopropylprop-2-enamide] to `CCCCNC(=O)C(C#N)=Cc1c(Cl)cccc1Cl` [9-J11, N-butyl-2-cyano-3-(2,6-dichlorophenyl)prop-2-enamide], the “% of control remaining” value falls from 110.262% to 79.4007%.

Going from `CC(Cl)C(=O)Nc1ccc2oc(=O)n(CCN(C)C)c2c1` (centres unmarked) [5-L19, 2-chloro-N-{3-[2-(dimethylamino)ethyl]-2-oxo-2,3-dihydro-1,3-benzoxazol-5-yl}propanamide] to `CC(Cl)C(=O)NC(=O)NCc1ccccc1` (centres unmarked) [6-P06, 1-benzyl-3-(2-chloropropanoyl)urea], the “% of control remaining” value falls from 100.182% to 88.439%.

Going from `CN(CC(=O)Nc1ccccc1Cl)C(=O)CCl` [4-D05, 2-chloro-N-{[(2-chlorophenyl)carbamoyl]methyl}-N-methylacetamide] to `O=C(CCl)Nc1ccccc1Sc1ccc(Cl)cc1` [4-O13, 2-chloro-N-{2-[(4-chlorophenyl)sulfanyl]phenyl}acetamide], the “% of control remaining” value falls from 122.344% to 116.246%.

Compared with `C=CC(=O)NCc1nnc(C2CCOCC2)[nH]1` [2-M22, N-{[5-(oxan-4-yl)-4H-1,2,4-triazol-3-yl]methyl}prop-2-enamide], `C=CC(=O)NCC1CCCc2nccn21` (centres unmarked) [2-B15, N-({5H,6H,7H,8H-imidazo[1,2-a]pyridin-5-yl}methyl)prop-2-enamide] is higher in “% of control remaining” value: 86.6841% for the first, 128.46% for the second.

Compared with `Cc1cc(C(=O)CCl)c(C)n1-c1ccc(Cl)c(C(F)(F)F)c1` [10-L18, 2-chloro-1-{1-[4-chloro-3-(trifluoromethyl)phenyl]-2,5-dimethyl-1H-pyrrol-3-yl}ethan-1-one], `O=C(CCl)NC1CN(c2ccc(C(F)(F)F)cc2)C1` [7-J06, 2-chloro-N-{1-[4-(trifluoromethyl)phenyl]azetidin-3-yl}acetamide] is higher in “% of control remaining” value: 0.3125% for the first, 97.9592% for the second.

Going from `C=CCNC(=O)C(C#N)=Cc1cnn(-c2ccc(Cl)cc2)c1` [9-M16, 3-[1-(4-chlorophenyl)-1H-pyrazol-4-yl]-2-cyano-N-(prop-2-en-1-yl)prop-2-enamide] to `CN(C)c1ccc(C=C(C#N)C(=O)Nc2ccccc2C(=O)O)cc1` [9-I08, 2-{2-cyano-3-[4-(dimethylamino)phenyl]prop-2-enamido}benzoic acid], the “% of control remaining” value falls from 84.4944% to 63.8202%.

Compared with `N#CC(=Cc1cc(F)ccc1F)C(=O)Nc1ccc2c(c1)OCCO2` [8-I10, 2-cyano-3-(2,5-difluorophenyl)-N-(2,3-dihydro-1,4-benzodioxin-6-yl)prop-2-enamide], `CCCCNC(=O)C(C#N)=Cc1cc(C)cc(C)c1` [9-C03, N-butyl-2-cyano-3-(3,5-dimethylphenyl)prop-2-enamide] is higher in “% of control remaining” value: 86.639% for the first, 123.146% for the second.

Going from `C=CC(=O)N(C)[C@H]1CS(=O)(=O)C[C@@H]1O` (racemic) [3-C15, rac-N-[(3R,4R)-4-hydroxy-1,1-dioxo-1lambda6-thiolan-3-yl]-N-methylprop-2-enamide] to `CCCCNC(=O)C(C#N)=Cc1c[nH]nn1` [9-L04, N-butyl-2-cyano-3-(1H-1,2,3-triazol-4-yl)prop-2-enamide], the “% of control remaining” value falls from 103.439% to 89.588%.

Going from `O=C1C=CC(=O)N1c1ccccc1Sc1ccc(Cl)cc1` [10-A03, 1-{2-[(4-chlorophenyl)sulfanyl]phenyl}-2,5-dihydro-1H-pyrrole-2,5-dione] to `O=C(CCl)N1N=C(c2ccc3ccccc3c2)CC1c1ccccc1` (centres unmarked) [4-K22, 2-chloro-1-[3-(naphthalen-2-yl)-5-phenyl-4,5-dihydro-1H-pyrazol-1-yl]ethan-1-one], the “% of control remaining” value rises from 10.9375% to 117.008%.

Going from `O=C(CCl)NCc1ccccc1OC(F)(F)F` [4-L21, 2-chloro-N-{[2-(trifluoromethoxy)phenyl]methyl}acetamide] to `CCn1cc(N2C(=O)C=CC2=O)cn1` [10-I21, 1-(1-ethyl-1H-pyrazol-4-yl)-2,5-dihydro-1H-pyrrole-2,5-dione], the “% of control remaining” value rises from 121.582% to 128.438%.
